Consider 44 sequences from the supplement of paper PMC11417369.

± gives the standard deviation of the averaged measurements. The list shows a part of the results.

In this test the test system is PfAP2-LT AP2 domain (GST-tagged). Kind of test: gcPBM binding intensity (ln(normalized median fluorescence intensity)); higher = stronger DNA binding. Put shortly:
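An Agilent 4 × 180k array of primer-extended double-stranded 36-bp intergenic genomic probes, with negative controls, was incubated for 1 h with GST-tagged P. falciparum DNA-binding domains expressed in E. coli. Alexa488 anti-GST antibody detected bound protein, scanned at 488 nm. Binding intensity is the highest Masliner-normalised natural-log median intensity across replicate spots of either probe orientation.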
As to “TATTTGTATATATGTGTGCACGTATAATCCATTAAA [GTGCAC_site9569]”, the “gcPBM binding intensity (ln)” value stood at 8.97 ± 0.33.

Regarding “TAAATGAGAAGGACTGCACACTAAAATGGAAGGAGA [CACACA_site8449]”, the “gcPBM binding intensity (ln)” value came to 9.18 ± 0.47.

Consider “GCATAAATCAAACACACACACATATATATATATATA [CACACA_site2422]”, for which the “gcPBM binding intensity (ln)” value came to 10.3 ± 0.15.

As for “AATGAATATAGTACTGAATGTAATTTAAGGTTTTCC [CACACA_negctrl_site1548]”, the “gcPBM binding intensity (ln)” value was 8.79 ± 0.5.

For the sequence TATAATGGATGCTAGCTGCACTAATAAGCAAAAATA, the “gcPBM binding intensity (ln)” value worked out at 8.73 ± 0.54.

For “TATATTAAATATTACACACATACATTTAGTGTCAAA [CACACA_site1990]”, the “gcPBM binding intensity (ln)” value came to 9.02 ± 0.46.

As to “AACAAAATAAATGTATGTACATATATATATATATAT [XGTACX_site7974]”, the “gcPBM binding intensity (ln)” value came out at 9.74 ± 0.65.

“ATATATATATCATATTGTACATACTTGTATTTATAT [XGTACX_site2432]”: the “gcPBM binding intensity (ln)” value is 9.06 ± 0.35.

Turning to “GTGGACGAAATAGTTGTAAATTTATGTGCAAACCTC [XGTACX_negctrl_site564]”, the “gcPBM binding intensity (ln)” value amounted to 8.92 ± 0.44.

As for “TCCTTACCTATTAAAGCATGCTCGAATATATATTTT [TGCATGCA_site53]”, the “gcPBM binding intensity (ln)” value worked out at 8.88 ± 0.41.

Consider “TTAATTATATATAAAAGTACTTATTTTTCCATATAA [XGTACX_site3033]”, for which the “gcPBM binding intensity (ln)” value is 8.12 ± 0.46.

Consider “TAATAGGAAATTATAGGTACACATACAAATAAATAA [XGTACX_site3587]”, for which the “gcPBM binding intensity (ln)” value stood at 8.9 ± 0.52.

As for “AATAATAATATATGTAGTACACATTTCCATTATGTT [XGTACX_site3708]”, the “gcPBM binding intensity (ln)” value was 8.86 ± 0.44.

Regarding “AAAAAAAAAAAAAAAACACACATTTCTTTTTCATAT [CACACA_site11]”, the “gcPBM binding intensity (ln)” value is 8.91 ± 0.45.

On to ATATTAAAAAGAAGTGTGCGCAAAACATTAACTTGA, for which the “gcPBM binding intensity (ln)” value was 9.37 ± 0.42.

On to “ATTTATATATTGCCCACACACATGTGATTATTTATA [CACACA_site1714]”, for which the “gcPBM binding intensity (ln)” value amounted to 9.28 ± 0.46.

For “AATGGATGGTCCAAATGTACATATATATATATATAT [XGTACX_site4800]”, the “gcPBM binding intensity (ln)” value was 9.9 ± 0.58.

“TAAATAAACCTGACTTGTACATGTAAAATAAATATA [XGTACX_site1667]”: the “gcPBM binding intensity (ln)” value was found to be 8.99 ± 0.57.

As for “AGAAAAAATAAAAATAGTACTCAAAAAATTATGAAT [XGTACX_site4908]”, the “gcPBM binding intensity (ln)” value was 8.6 ± 0.57.

“AATGGTACATGATACACACACGCACATATATATATT [CACACA_site3425]”: the “gcPBM binding intensity (ln)” value came to 9.56 ± 0.3.

On to “ATGTAGATATATATATGTACTAATTAGTAGTTTACG [XGTACX_site6275]”, for which the “gcPBM binding intensity (ln)” value was determined as 9.12 ± 0.47.

“ACATAAATAATAAAAACACACATATGTACAGATATA [CACACA_site5112]”: the “gcPBM binding intensity (ln)” value stood at 9.16 ± 0.49.

Consider “AGAAAAAAAAAACACACACACACACCCTCAATATAA [CACACA_site39]”, for which the “gcPBM binding intensity (ln)” value was determined as 10.1 ± 0.11.

With “AAATAGATAAACTAAACACACAAAAAAAAAAAAAAT [CACACA_site1179]”, the “gcPBM binding intensity (ln)” value stood at 9.13 ± 0.55.

As to “TTATATGAAAAAATATGTACGTATAATGAGAAATAT [XGTACX_site8987]”, the “gcPBM binding intensity (ln)” value is 8.91 ± 0.38.

With “GTTATAAATGCATATACACACATACGTACATACATA [CACACA_site7655]”, the “gcPBM binding intensity (ln)” value was 9.19 ± 0.35.

As to “TCATTAATCAGGTATGCATGCATAACTATTAAAAAT [TGCATGCA_site90]”, the “gcPBM binding intensity (ln)” value was determined as 8.8 ± 0.4.

“TCTTTTTTTTTTATTTGTACTTATTTTTTTCAAAAA [XGTACX_site3403]”: the “gcPBM binding intensity (ln)” value was found to be 8.54 ± 0.52.

On to “AAAATAACGAGTCAAACACACATATTTATATTTATA [CACACA_site7050]”, for which the “gcPBM binding intensity (ln)” value was 8.95 ± 0.45.

Consider “TAATATAACTACATAACACACGAAAATATATGAATC [CACACA_site3628]”, for which the “gcPBM binding intensity (ln)” value amounted to 9.1 ± 0.43.

With “TTTAATATGAATTTATGTACATATATATATATATAT [XGTACX_site6337]”, the “gcPBM binding intensity (ln)” value amounted to 9.23 ± 0.54.

“TATATTAAAAAAAAATGTACATATATATAATATATA [XGTACX_site1935]”: the “gcPBM binding intensity (ln)” value amounted to 8.59 ± 0.42.

As for “ATTTTTATTTTCTTTACACACCACATAACTTTTTTT [CACACA_site7826]”, the “gcPBM binding intensity (ln)” value is 9.04 ± 0.43.

As for “ATATATATATATATATGTACATATATCTACATATAT [XGTACX_site7588]”, the “gcPBM binding intensity (ln)” value stood at 9.54 ± 0.46.

On to “ACTTTTTAATATTTTAGTACACAGTAATTCTTACTA [XGTACX_site1425]”, for which the “gcPBM binding intensity (ln)” value was found to be 8.77 ± 0.51.

As for “TATGTAATAAATAGTACACACACACCGATATATATA [CACACA_site8389]”, the “gcPBM binding intensity (ln)” value was determined as 9.79 ± 0.057.

As to “AAAAAAAAAAAATACACACACATATATATATATATA [CACACA_site2224]”, the “gcPBM binding intensity (ln)” value came out at 10.1 ± 0.3.

With “TATAATAATATTATAGTGCATATTATTTATATATAA [GTGCAC_site9820]”, the “gcPBM binding intensity (ln)” value came out at 8.61 ± 0.42.

Regarding “GATATGTTAAATATATGTACATATATAAACCCAAAC [XGTACX_site6601]”, the “gcPBM binding intensity (ln)” value stood at 9.1 ± 0.46.

In the case of “AAAGTAAAAAAAAAAACATGCATACGCTAATTTTTA [TGCATGCA_site301]”, the “gcPBM binding intensity (ln)” value came to 8.39 ± 0.5.

In the case of “AAAAAGTGATTAAAATGTACAAAATGCATAAAAGAA [XGTACX_site6625]”, the “gcPBM binding intensity (ln)” value is 9.07 ± 0.41.

With “ATTTTAATACTTTTATATTAAATGTAGCACATCATA [XGTACX_negctrl_site273]”, the “gcPBM binding intensity (ln)” value came to 8.48 ± 0.52.

“CATTTTTTGCTTTCAACACACATACAATATAAATAA [CACACA_site7858]”: the “gcPBM binding intensity (ln)” value stood at 8.63 ± 0.41.

As for “TTATTTATTTAGTAGTGTACTTTTTATATTTATAAT [XGTACX_site5978]”, the “gcPBM binding intensity (ln)” value stood at 8.63 ± 0.55.
